# Assay results from the RNAGym collection of RNA variant scans (doi:10.1093/nar/gkz1192).
# The source gives no read counts; variants with many changes may rest on few reads.
# B1: CPEB3 Ribozyme (parent)
# chain: UAACAGGGGGCCACAGCAGAAGCGUUCACGUCGCAGCCCCUGUCAGAUUCUGGUGAAUCUGCGAAUUCUGCUGUAUAUCUC
# Variants of: B1
# Test: self-cleavage, relative activity (ratio to wild type); higher = more cleavage; in vitro, sequencing
# Method in brief: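 Relative activity was defined as the cleaved/total read fraction for a variant divided by the same fraction for the unmutated ribozyme. CPEB3 self-cleaving ribozyme libraries were made by rounds of error-prone PCR, barcoded, and transcribed in vitro with T7 RNA polymerase for 5 hours at 37°C, and cleavage ran through transcription plus a 15 min DNase I step before EDTA. Illumina sequencing of template-switched reverse transcripts gave the reads, and DNA sequencing mapped the barcodes. Averages come from three batches, using variants with at least 5 reads.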
row,Variant,self-cleavage
1,A5G G7A C11U U25C U49C A65G U69C,0.05
2,A5G C14A C29U A56G C62A,0.2
3,A5G C29A U41A U48G,0.14
4,A5G A15G A45G G53A A56G U76C,0.28
5,A5G A21G U54G A75U,0.38
6,A5G A13G C29U U54C A64U C79G U80C,0.06
7,A5G A13U G30A U43C,0.12
8,A5G A28U U80C,0.31
9,A5G A35G U54C G70A,0.56
10,A5G A18U U66C,0.28
11,A5G A15G U80A,0.45
12,A5C U49C A75U,0.83
13,A5C U43A A45G U51C U72C,0.78
14,A5G A20G G73A,1.11
15,A5C G9U U67A,0.08
16,A5G A13G U26C A35C,0.47
17,A5G C17U G30U U43C U66C U69G A75G,0.07
18,A5G A13U U26A U78C U80C,0.38
19,A5G A28U A47G A57G A77U,0.36
20,A5G A13G A18U U49A,0.44
21,A5G C40U G53A A56G A65G U69C,0.08
22,A5G A18U G22U,0.7
23,A5G G9U U26C C29U A56G U72C,0.34
24,A5G A20G A47G U66C U69C,0.32

row,Variant,self-cleavage
1,A5G A20G U60C,0.32
2,A5G C32A A64G U72C,0.24
3,A5G G7U G30A U72C,0.08
4,A5G A35G A57C U66C U74C,0.32
5,A5G C23A U76C,0.09
6,A5G G9A U51A A56U A65G,0.19
7,A5G A28G G46U,0.07
8,A5G C17U C40A U41C U60A A64G U66C,0.16
9,A5G G16U A21G U41A U43C C59A U69C,0.05
10,A5G G8A A77G,0.1
11,A5G A20G U31A C40A,0.08
12,A5G G9A A15U U69C C71U,0.16
13,A5G C27U U41A A65C,0.13
14,A5G A15G U25A U41C C62U A64G U76A,0.04
15,A5G G9U C29G U41A U58C,0.31
16,A5G A18U U78C U80C,0.21
17,A5G A15U U60C,0.3
18,A5G A15G U54C G61C U72C,0.09
19,A5G A18U U51A,0.28
20,A5G G10A A45G U48A A57C A65G U80C,0.06
21,A5G A15G A20G A28U U43C U51A,0.05
22,A5G G16A U25A U49C A57G,0.38
23,A5G G9A U31C U43C,0.28
24,A5G C27A G36U U51G,0.13

row,Variant,self-cleavage
1,A5G A45U U60C U69C U80C,0.21
2,A5G A21G C37U U66C U78C,0.32
3,A5G A18G A20G U60C U67C,0.21
4,A5C G6C A45G U80C,0.17
5,A5G C32U U69C U74A,0.11
6,A5G A15U A20G C62U,0.26
7,A5G A56U A57U A77U,0.15
8,A5G G7A A15U A18U U48G A64G,0.07
9,A5G A18G G19A U41A U69A,0.07
10,A5G A13G C71U,0.29
11,A5G C12U G19A U54C U58C U66C,0.1
12,A5G A15U A45U U48C U67C U76C,0.08
13,A5G A28U G36A,0.21
14,A5G A20U A64U A77G,0.14
15,A5G A18G C27U U74C,0.11
16,A5G A15G A18G A28G,0.52
17,A5G A21U U41A A56G A64G U69A A75U,0.1
18,A5G A20C G24U U51A C71U,0.09
19,A5G A13U C62A U80C,0.36
20,A5G A13G U51C U54C,0.54
21,A5G G6U U69C,0.08
22,A5G G7C U25C U26C U54A A75U U80C,0.05
23,A5G A20U A28G U43C U67C U80A,0.17
24,A5G G10A A20G U41A,0.29

row,Variant,self-cleavage
1,A5C U26C U51C,0.54
2,A5G A35G G36U C39G U43C U51C U69G,0.28
3,A5G G9A A45G A64G,0.06
4,A5G A20G U26A C27U G42A U66C A77G,0.09
5,A5G G9U A18G A35G,0.32
6,A5G A15G U25A U41A U76A,0.47
7,A5G A28U A64G U78C,0.41
8,A5G A15G A35U,0.45
9,A5G G9A A57G,0.51
10,A5G A20G U26A U60G C62G C71U U74C,0.02
11,A5G G6U A28U U80C,0.66
12,A5G A21G U25C A28G A35U U49C,0.04
13,A5G A28U U54C,0.48
14,A5G G9A U43C U54C U58C U67C,0.06
15,A5G C12U A15G,0.34
16,A5G A28G U31C U51C A57G U58C A65G,0.7
17,A5G A28G U49C U60A,0.16
18,A5G A35G U43A U60C U78C,1.15
19,A5G A20G A57G,0.5
20,A5G A15G U51A,0.45
21,A5G G7C A35U U49C G52U,0.31
22,A5G A35G A64G,1.09
23,A5G A18U U26A U41A,0.27
24,A5G C11G C34U C39U U69C U72C U74C,0.07

row,Variant,self-cleavage
1,A5G G9A C17G,0.42
2,A5G C29U U51C,0.14
3,A5G A18U U25C U41C U49G U54G,0.25
4,A5G A21U C34U U58A U78G U80C,0.13
5,A5G A21U U41C,0.29
6,A5G A15G A45G A57G A64G,0.49
7,A5G G10A U54G G55U,0.33
8,A5G A21G U31C G36A U51C U78A U80A,0.06
9,A5G G10A A13U U31G U54C A77U,0.06
10,A5G C23A U26A A35U U54C A65U U72G,0.04
11,A5G C11G U25C C29G A35U U48G U54C,0.06
12,A5G G8U U25C U58C G61U,0.07
13,A5G A20G A45G G46A U48C A77G,0.8
14,A5G A13G A21G A45U G73A,0.12
15,A5G A15G A77G,0.54
16,A5G G9A A18G U25C,0.27
17,A5G A18G U58C U69C,0.32
18,A5G G8A A20G A21U C27U G63A,0.14
19,A5G C37A A56G U72C,0.24
20,A5C G6A A64G U66C U72C A75G,0.05
21,A5G A13U A18U G46C,0.28
22,A5G G10A C17U U26C,0.09
23,A5G A21G U26C C40U U41A A65G U80C,0.07
24,A5G A13G U31C,0.56

row,Variant,self-cleavage
1,A5G A21G U26C A47U A64U,0.06
2,A5G G9A U25A C37U U54G A75G,0.06
3,A5G A18G A45G,0.54
4,A5G A13G A20U U26C U41C U66C,0.05
5,A5G G8C A15U U26C A65U U69A,0
6,A5G G9A U72A,0.39
7,A5G C11A G33U U43C A45U U74A U80C,0.05
8,A5G A13G C38G A64G A65G U69C,0.3
9,A5G C11U A77G,0.24
10,A5G G9A C37U U72C U74C,0.07
11,A5G C12U U43C U54C U58C,0.17
12,A5G G8A U74C,0.14
13,A5G C62U U67C U80A,0.16
14,A5G A20C A28G U74A,0.57
15,A5G A18G A20U C29U G53U,0.36
16,A5G G9A U26A,0.54
17,A5G A15G U26C A56U U74A,0.36
18,A5G A20G A64G U66C A75U,0.08
19,A5G A13C A45G,0.71
20,A5G A13U A18G A21G U41A A65G,0.08
21,A5G A28G C38A U43C U67A,0.11
22,A5G A15U A45U U80A,0.76
23,A5G A35G U69G,1
24,A5G A28G G33A C40A U43A U69C U72C,0.07

row,Variant,self-cleavage
1,A5G A15G C37U U41G U49C U67A,0.15
2,A5G G7A G9U A45G U58C U72A,0.05
3,A5G A13C A65U,0.21
4,A5G G7C U49C,0.79
5,A5G A35G U72A,1.1
6,A5G A47C C62G U72C U78A,0.15
7,A5G G16C U43A A45G U54C U80C,0.17
8,A5G A35U U48C A65G,0.07
9,A5G G9U U48C,0.71
10,A5G A18U C68A,0.28
11,A5G C27U U31C U51A A56G,0.33
12,A5G A35G U54A,1.16
13,A5C U49C A64U,0.09
14,A5G C11A A20G U26C A57G,0.5
15,A5G G7A G8A C14U U48C A65G,0.06
16,A5G A21G A28G G52A U54C U69A U72G,0.06
17,A5G A18G A45G A64U U72C,0.73
18,A5G C17U A18G A20G U31A A45C A47U,0.06
19,A5G C14U C34A U41A G52U,0.08
20,A5C U43A A45G A64U U72C,0.21
21,A5G A35U U51C A64G U67C,0.05
22,A5G C17U A18G U67C,0.25
23,A5G A13G A56U A64U,0.1
